# The supplement of paper PMC9446081
# About 220 (0.56%) of roughly 39,000 compounds showed activity. The list shows a part of the results.
# System: Escherichia coli K-12 BW25113
# Assay: relative growth (OD600 normalised to plate interquartile mean) (fraction); higher = less growth inhibition, active = 0.2 or less
# Details: 50 µM; LB; incubation time: overnight (16-24 h)
# 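Also: static incubation at 37 °C against the wild-type strain, values averaged over two biological replicates.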
row,SMILES,relative growth
1,NCCC(=O)NCCc1cnc[nH]1,inactive: 0.996
2,CO[C@@H]1CN(C)C(=O)c2ccc(NS(=O)(=O)CC(F)(F)F)cc2OC[C@H](C)N(C(=O)NC(C)C)C[C@@H]1C,inactive: 0.991
3,CCCS(=O)(=O)N1CCC[C@H](C(=O)NC)C1,inactive: 1
4,Cc1ccc(S(=O)(=O)N[C@@H]2CC[C@@H](CCNC(=O)CN3CCOCC3)O[C@H]2CO)cc1,inactive: 1.04
5,NC(=O)N1c2ccccc2C=Cc2ccccc21,inactive: 1.03
6,C[C@@H](O)c1cccc(C(F)(F)F)c1,inactive: 0.986
7,O=C(C[C@H]1C[C@@H]2c3cc(NC(=O)Nc4ccc(C(F)(F)F)cc4)ccc3O[C@@H]2[C@@H](CO)O1)NCc1cc(F)ccc1F,inactive: 1
8,C[C@@H]1CN([C@H](C)CO)C(=O)c2cc(NC(=O)CCC(F)(F)F)ccc2O[C@@H](C)CCCCO[C@H]1CN(C)C(=O)Nc1cccc2ccccc12,inactive: 1.02
9,CC(C)(C)OC(=O)C[C@@H]1CC=CC[C@@H](CC(=O)NCCO)C(=O)N[C@@H](Cc2ccccc2)COC1=O,inactive: 1
10,Cc1noc(C)c1NC(=O)N(C)C[C@@H]1Oc2ccc(NC(=O)Nc3cccc4ccccc34)cc2CC(=O)N([C@@H](C)CO)C[C@@H]1C,inactive: 1.01
11,C[C@H]1CN([C@@H](C)CO)C(=O)c2cccc(NC(=O)Nc3ccc(C(F)(F)F)cc3)c2O[C@H]1CN(C)S(C)(=O)=O,inactive: 0.961
12,COc1ccc(NC(=O)Nc2ccc3c(c2)CC(=O)N([C@H](C)CO)C[C@@H](C)[C@H](CN(C)Cc2ccc(Oc4ccccc4)cc2)O3)cc1,inactive: 1.03
13,C[C@H]1CN([C@@H](C)CO)C(=O)c2cccc(NC(=O)c3nc4ccccc4s3)c2O[C@@H]1CN(C)Cc1ccc(C(=O)Nc2ccccc2N)cc1,inactive: 1.01
14,COc1ccc(NC(=O)N(C)C[C@H]2Oc3ccc(NC(=O)CCCCCC(=O)Nc4ccccc4N)cc3C(=O)N([C@@H](C)CO)C[C@@H]2C)cc1,inactive: 0.957
15,C[C@@H]1CCCCO[C@@H](CN(C)Cc2ccc(Cl)c(Cl)c2)[C@H](C)CN([C@@H](C)CO)C(=O)c2cc(NS(=O)(=O)c3ccccc3)ccc2O1,inactive: 1.05
16,C[C@H]1CN([C@@H](C)CO)C(=O)c2cccc(NC(=O)Nc3ccc(C(F)(F)F)cc3)c2O[C@@H]1CN(C)S(=O)(=O)c1ccc(F)cc1,inactive: 0.804
17,C[C@@H]1CN([C@H](C)CO)C(=O)CCCn2nncc2CO[C@@H]1CN(C)C(=O)c1ccc(N2CCN(C)CC2)cc1,inactive: 1.01
18,C[C@@H]1CN([C@@H](C)CO)C(=O)c2cccc(NC(=O)Nc3ccccc3)c2O[C@@H]1CN(C)Cc1ccc(C(F)(F)F)cc1,inactive: 1.01
19,CO[C@H]1CN(C)C(=O)c2cc(NC(=O)NC3CCCCC3)ccc2OC[C@@H](C)N(CCc2ccccc2)C[C@H]1C,inactive: 1.02

row,SMILES,relative growth
1,C[C@H]1CN([C@@H](C)CO)C(=O)c2cccc(NC(=O)C3CCCCC3)c2O[C@@H]1CN(C)C(=O)Nc1ccc(C(F)(F)F)cc1,inactive: 0.856
2,C[C@H](CO)N1C[C@H](C)[C@@H](CN(C)S(=O)(=O)c2cn(C)cn2)Oc2ccc(NC(=O)CCCN(C)C)cc2C1=O,inactive: 0.939
3,CC(C)NC(=O)[C@@H](N)c1ccccc1,inactive: 0.912
4,Cc1ccc(S(=O)(=O)Nc2ccc3c(c2)C(=O)N([C@@H](C)CO)C[C@@H](C)[C@H](CN(C)CC2CCCCC2)OCCCC[C@H](C)O3)cc1,inactive: 0.961
5,C[C@@H]1CN([C@H](C)CO)C(=O)Cc2cc(NS(=O)(=O)c3cn(C)cn3)ccc2O[C@H]1CN(C)S(=O)(=O)c1ccc(F)cc1,inactive: 0.962
6,CC1(C(=O)O)CCC2(C)CCC3(C)C(=CC(=O)C4C5(C)CCC(O)C(C)(C)C5CCC43C)C2C1 (stereo not drawn),inactive: 0.894
7,C[C@H]1CN([C@@H](C)CO)S(=O)(=O)c2ccc(C#Cc3cccnc3)cc2O[C@H]1CN(C)CC1CCOCC1,inactive: 1.02
8,C[C@@H]1CN([C@@H](C)CO)C(=O)c2cccc(NS(C)(=O)=O)c2O[C@@H]1CN(C)C(=O)NC1CCCCC1,inactive: 0.968
9,CCN1C(C)(C)CC(Oc2ccc(C(=O)Nc3ccc(NC(=O)Nc4cc(C(C)(C)C)on4)cc3)nc2)CC1(C)C,inactive: 0.844
10,CN(Cc1cnc2nc(N)nc(N)c2n1)c1ccc(C(=O)N[C@@H](CCC(=O)O)C(=O)O)cc1,inactive: 1.01
11,C[C@@H]1CCCCO[C@H](CN(C)C(=O)Nc2ccc(C(F)(F)F)cc2)[C@H](C)CN([C@@H](C)CO)C(=O)c2cc(NS(=O)(=O)c3cccs3)ccc2O1,inactive: 0.961
12,C[C@@H]1CN([C@H](C)CO)C(=O)c2c(c3ccccc3n2C)-c2ccccc2CO[C@@H]1CN(C)C(=O)Nc1ccc(F)cc1,inactive: 1.01
13,Cc1ccc(S(=O)(=O)Nc2ccc3c(c2)C(=O)N([C@@H](C)CO)C[C@H](C)[C@H](CN(C)C(=O)Nc2cccc4ccccc24)O3)cc1,inactive: 1.01
14,C[C@@H]1CN([C@H](C)CO)C(=O)c2cc(-c3ccncc3)cnc2O[C@@H]1CN(C)S(=O)(=O)c1ccccc1,inactive: 0.959
15,C[C@H](CO)N1C[C@H](C)[C@@H](CN(C)Cc2ccc(-c3ccccc3)cc2)Oc2ccc(NS(=O)(=O)c3ccc(Cl)cc3)cc2C1=O,inactive: 1.05
16,C[C@@H]1CN([C@@H](C)CO)C(=O)CCCn2cc(nn2)CO[C@@H]1CN(C)S(=O)(=O)c1ccc(Oc2ccccc2)cc1,inactive: 1.04
17,CN(C)CCCCCCNC(=O)[C@@H]1C[C@@H]2C(=O)N[C@@H](CCCC[N+](C)(C)C)C(=O)N2[C@@H]1c1cccc(OCCO)c1,inactive: 1.01
18,C[C@@H]1CCCCO[C@H](CN(C)C(=O)NC2CCCCC2)[C@@H](C)CN([C@H](C)CO)C(=O)c2cc(NC(=O)CCCCCC(=O)Nc3ccccc3N)ccc2O1,inactive: 0.958
19,CC(C)NC(=O)N(C)C[C@@H]1Oc2c(NS(=O)(=O)c3ccccc3)cccc2C(=O)N([C@@H](C)CO)C[C@H]1C,inactive: 0.949
